Source: PubChem BioAssay AID624417 (National Center for Advancing Translational Sciences (NCATS), 2012)
The campaign covered roughly 410,000 compounds. About 6,400 (1.6%) were called active. The shares of active, inactive and inconclusive entries below differ from those in the screen. Calls follow the shape of the dose curve; as a rule, active = well fitted inhibition curve with a large enough effect; inconclusive = small, poorly fitted or top-dose-only effect; inactive = no such curve, though single readings can be large or run the other way. Potencies of inconclusive entries are left out as doubtful fits.

target: Glucagon-like peptide 1 receptor (Homo sapiens) (UniProt P43220); assay: qHTS of GLP-1 Receptor Inverse Agonists (Inhibition Mode); conditions: HEK293 GLP-1R CRE-luciferase, luminescence, 24 h, GLP-1R form is constitutively active; series mostly up to 38.3 µM; also: nearly all actives have a fitted effect of over 55% in size
Procedure, shortened: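 Constitutively active GLP-1R drives a cAMP-responsive luciferase in stably transfected HEK293 cells; test compounds are added after overnight (12 h) attachment and left 24 hr, and signal loss in luminescence marks inhibition.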
Potency is read from the fitted curve at half-maximal effect; tags tell the direction and shape of the fitted curve.

Chain of UniProt P43220 (P43220 whole entry, looked up): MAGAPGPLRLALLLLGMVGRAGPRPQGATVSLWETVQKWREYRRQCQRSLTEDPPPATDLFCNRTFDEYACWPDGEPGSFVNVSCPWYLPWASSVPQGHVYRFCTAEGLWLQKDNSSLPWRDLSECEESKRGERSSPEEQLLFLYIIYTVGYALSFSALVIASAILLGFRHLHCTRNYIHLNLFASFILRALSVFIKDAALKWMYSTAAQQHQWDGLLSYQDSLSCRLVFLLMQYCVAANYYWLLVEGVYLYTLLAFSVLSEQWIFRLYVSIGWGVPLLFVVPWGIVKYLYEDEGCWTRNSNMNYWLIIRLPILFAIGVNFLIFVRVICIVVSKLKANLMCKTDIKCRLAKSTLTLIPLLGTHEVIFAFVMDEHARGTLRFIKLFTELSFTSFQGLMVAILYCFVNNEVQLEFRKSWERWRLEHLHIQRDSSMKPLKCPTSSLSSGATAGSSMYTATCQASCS

Row | SMILES | Potency
1 | COCCN=C1N[C@@H](c2cccc(C(F)(F)F)c2)C(C(=O)OC)=C(C)N1Cc1ccccc1 | inconclusive [inhibitor, single point]
2 | CN(C)CCCNC(=O)c1ccc(-c2ccccc2)cc1 | inconclusive [inhibitor, single point]
3 | O=C1CCCN1CCC(=O)N1CCCC(Nc2ccc(F)cc2)C1 (centres undefined) | inactive
4 | COc1ccc2cc3c(N)nn(C(=O)Cc4ccccc4OC)c3nc2c1 | inconclusive [inhibitor, partial curve, poor fit]
5 | COc1ccc(NC(=O)c2nc(C)c(C3(C)CC(c4ccccc4)=NO3)s2)cc1 (centres undefined) | inconclusive [inhibitor, full curve, poor fit]
6 | COc1ccc(-c2nc(C)ncc2-c2ccc(Cl)cc2)c(O)c1 | inconclusive [inhibitor, partial curve, poor fit]
7 | CCCSc1nnc(Nc2ccccc2C)s1 | inconclusive [inhibitor, single point]
8 | CN(Cc1ccccc1)C(=O)c1ccc(Nc2nc(C(N)Cc3ccc(C(F)(F)F)cc3)cs2)nc1 (centres undefined) | inconclusive [inhibitor, partial curve, poor fit]
9 | C[C@]12c3[nH]c4ccccc4c3CCN1C(=O)C(CC(=O)NCc1cccc(C(F)(F)F)c1)C[C@@H]2C(=O)N1CCCCC1 (some centres undefined) | inconclusive [inhibitor, single point]
10 | C=CCc1cc(Cl)ccc1OCCOCCNC(C)(C)C | inconclusive [inhibitor, partial curve, poor fit]
11 | CCCCOc1ccc(C(=O)NCC(c2ccc(Cl)cc2)N2CCOCC2)cc1 (centres undefined) | inconclusive [inhibitor, single point]
12 | COc1cc(C2C3=C(CC(C)(C)CC3=O)N(C)C(=O)N2C)cc(OC)c1OC (centres undefined) | inactive
13 | COc1cc(OC)c(NC(=O)CCc2ccccc2)cc1Cl | inconclusive [inhibitor, single point]
14 | Cc1nc(C(=O)N2CCc3c([nH]c4ccccc34)C2c2cc(F)ccc2F)cs1 (centres undefined) | active: 11.2 µM
15 | COc1ccccc1NC(=O)CCc1nc2sc3c(c2c(=O)[nH]1)CCCC3 | inconclusive [inhibitor, single point]
16 | Cc1cccc(C)c1-n1ncc(C(=O)NCCCN2CCCCC2)c1C1CCN(C(=O)OC(C)(C)C)CC1 | inconclusive [inhibitor, single point]
17 | CCN(CC)CCCN(C(=O)c1ccc(Br)cc1)c1nc(-c2ccc(OC)cc2)cs1 | inconclusive [inhibitor, full curve, poor fit]
18 | COc1cccc(-c2nc(CS(=O)(=O)CC(=O)NCc3ccc4c(c3)OCO4)c(C)o2)c1 | inconclusive [inhibitor, single point]
19 | O=C(CN1CCN(c2ccccc2Cl)CC1)NC1CCCc2ccccc21 (centres undefined) | active: 10 µM
20 | CN(C)C1(CNC(=O)C2CCN(S(=O)(=O)c3ccccc3C(F)(F)F)CC2)CCCCC1 | inconclusive [inhibitor, single point]

Row | SMILES | Potency
21 | CCOC(=O)c1ccc(N2C(=O)c3n[nH]c(-c4ccco4)c3C2c2ccc(OC)cc2OC)cc1 (centres undefined) | inconclusive [inhibitor, single point]
22 | O=C1OCCN1C(=O)[C@H]1[C@H](c2ccc(F)cc2)C(c2cccc(Cl)c2)=NN1c1ccccc1 | inconclusive [inhibitor, single point]
23 | C/C(=N\NC(=O)c1ccc2c(c1)OCO2)c1ccc(C(=O)O)s1 | inactive
24 | Cc1ccc(NC(=O)/C(=C\c2cccc([N+](=O)[O-])c2)NC(=O)c2cccs2)cc1 | inactive
25 | O=C(NC1CCCCC1)C(c1ccncc1)n1c(=O)c(-c2cc3ccccc3[nH]2)nc2ccccc21 (centres undefined) | inconclusive [inhibitor, single point]
26 | Cc1cc(C)c(NC(=O)/C(=C/c2ccccc2)c2ccccc2)c(C)c1 | inconclusive [inhibitor, partial curve, poor fit]
27 | Cc1cc(C)n(-c2ccc(NC(=O)C3CCN(Cc4cc(C)c(C)o4)CC3)cc2)n1 | inconclusive [inhibitor, single point]
28 | CC(=O)N(C(C)=O)c1cccc(N(Cc2ccccc2)Cc2ccccc2)c1 | inconclusive [inhibitor, partial curve, poor fit]
29 | CC(C)c1csc(CN2CCC(C(=O)Nc3cccc(-c4ccco4)c3)CC2)n1 | inconclusive [inhibitor, partial curve, poor fit]
30 | O=C(Cc1cn(-c2ccccc2)nc1-c1ccccc1)N1CCCCC1 | inconclusive [inhibitor, partial curve, poor fit]
31 | Cn1cc(CN2CCC(O)CC2)c(-c2ccc(Oc3ccccc3)cc2)n1 | inconclusive [inhibitor, partial curve, poor fit]
32 | COc1ccccc1C(=O)Nc1ccnn1C1CCN(CCCC2CCCC2)CC1 | inconclusive [inhibitor, partial curve, poor fit]
33 | Cc1ccc(NC(=O)Cc2ccc(NC(=O)N3CCCCc4ccccc43)cc2)cc1Cl | inconclusive [inhibitor, full curve, poor fit]
34 | COCCNC(=O)C1C(=O)Nc2ccccc2C(=O)N1c1ccc2c(c1)OCCO2 (centres undefined) | inactive
35 | C=CCn1c(Cc2cccc3ccccc23)n[nH]c1=S | inconclusive [inhibitor, single point]
36 | COc1ccc(NC(=O)Cn2cnc3ccc(S(=O)(=O)N4CCC(C)CC4)cc3c2=O)c(OC)c1 | inactive
37 | CN(C)CCN(C(=O)c1ccc2ccccc2c1)c1nc2ccc(Br)cc2s1 | inactive
38 | Cc1ccc(C)c(N2CCN(c3nc4ccccc4c(=O)n3-c3ccc(Cl)cc3)CC2)c1 | inactive
39 | CN1C(=O)/C(=C/c2ccc(C(F)(F)F)cc2)Sc2ccc(C(=O)N3CCN(c4ccccn4)CC3)cc21 | inconclusive [inhibitor, partial curve, poor fit]
